Source: article PMC4336329 (PLoS ONE, 2015)
The whole screen tested about 310,000 compounds, of which about 2,200 (0.71%) showed an effect of 50% or more. Effects have a minus sign here. This is one part of the list.

Target: human ether-à-go-go-related gene (hERG) potassium channel (human, UniProt Q12809)
Assay: primary screen, population patch clamp on CHO cells stably expressing hERG

Sequence of human ether-à-go-go-related gene (hERG) potassium channel (Q12809 whole entry, looked up): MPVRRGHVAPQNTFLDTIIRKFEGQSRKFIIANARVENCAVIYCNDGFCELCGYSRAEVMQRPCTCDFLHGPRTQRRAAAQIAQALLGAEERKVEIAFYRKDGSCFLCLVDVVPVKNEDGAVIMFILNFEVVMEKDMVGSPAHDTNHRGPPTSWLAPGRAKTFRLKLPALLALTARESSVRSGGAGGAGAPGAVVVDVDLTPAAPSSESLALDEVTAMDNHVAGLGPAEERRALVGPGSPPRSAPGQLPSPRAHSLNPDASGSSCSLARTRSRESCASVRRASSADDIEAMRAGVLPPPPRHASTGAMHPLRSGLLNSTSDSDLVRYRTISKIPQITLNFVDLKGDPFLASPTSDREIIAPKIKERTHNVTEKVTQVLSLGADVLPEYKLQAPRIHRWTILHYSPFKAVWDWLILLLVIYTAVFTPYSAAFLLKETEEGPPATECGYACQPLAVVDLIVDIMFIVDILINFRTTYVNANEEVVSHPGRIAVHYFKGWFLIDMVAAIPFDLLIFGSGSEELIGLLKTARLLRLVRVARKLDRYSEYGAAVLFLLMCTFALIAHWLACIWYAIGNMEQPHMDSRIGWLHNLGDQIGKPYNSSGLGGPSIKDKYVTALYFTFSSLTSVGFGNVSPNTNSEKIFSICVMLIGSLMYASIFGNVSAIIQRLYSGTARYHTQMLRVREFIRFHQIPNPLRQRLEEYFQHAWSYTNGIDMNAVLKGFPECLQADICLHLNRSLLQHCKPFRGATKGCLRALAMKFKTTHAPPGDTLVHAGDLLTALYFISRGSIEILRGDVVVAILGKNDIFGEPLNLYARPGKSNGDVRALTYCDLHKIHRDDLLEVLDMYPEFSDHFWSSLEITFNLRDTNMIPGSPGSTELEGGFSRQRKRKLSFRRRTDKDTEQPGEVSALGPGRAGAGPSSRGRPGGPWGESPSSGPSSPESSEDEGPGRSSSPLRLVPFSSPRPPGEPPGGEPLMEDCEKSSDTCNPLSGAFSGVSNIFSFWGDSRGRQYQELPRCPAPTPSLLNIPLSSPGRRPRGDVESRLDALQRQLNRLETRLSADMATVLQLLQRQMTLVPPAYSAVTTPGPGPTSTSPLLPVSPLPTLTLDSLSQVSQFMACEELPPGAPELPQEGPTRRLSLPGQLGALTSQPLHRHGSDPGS

SMILES | hERG current change (%, negative = inhibition) at 1uM [%]
Cc1ccc2[nH]c(=O)c(C(c3nnnn3Cc3ccccc3)N3CCc4ccccc43)cc2c1 (centres unmarked) | -2.88
O=C(CCCOc1ccc(Cl)cc1Cl)NN1CCOCC1 | 11.8
CSc1nnc(NC(=O)c2ccc(S(=O)(=O)N3CCOCC3)cc2)s1 | 13.2
COC(=O)CN1C(=O)NC2(CCCc3ccccc32)C1=O (centres unmarked) | 14.6
CN(C)S(=O)(=O)c1ccc(C(=O)Nc2ccccc2C(=O)NCCCN2CCOCC2)cc1 | 6.77
Cc1ccc(C(C)C)c(OCC(=O)N2CCN(CC(=O)N3CCOCC3)CC2)c1 | 9.03
Cn1c(=O)c2c(SCC(=O)N3CCCC3)nc(CC(C)(C)C)nc2n(C)c1=O | 8.11
O=C(CCNc1cccc(Cl)c1)c1ccco1 | -6.42
CC(=O)c1sc(-c2cccc(Cl)c2)nc1C | 17.8
COC(=O)C1CCCN1S(=O)(=O)c1ccccc1NC(=O)c1cc(OC)c(OC)c(OC)c1 (centres unmarked) | 15.2
O=S(=O)(NCc1ccc(Cl)cc1)NCc1ccc(Cl)cc1 | 13.7
COc1ccc2c(=O)c(C(=O)NCCc3ccccc3)c[nH]c2c1 | 5.12
C[N+]1(C2CCC3CCCC2C3O)CCCC1.[I-] (centres unmarked) | 9.89
CNc1nc(OCC(F)(F)F)nc(OCC(F)(F)F)n1 | 8.34
COc1ccc(S(=O)(=O)N2CCCCCC2)cc1C(=O)N(C)CC(=O)Nc1ccc(Cl)c(Cl)c1 | -4.06
O=C(CSc1nc2ccncc2[nH]1)Nc1ccccc1C(F)(F)F | 1.17
CN(C)S(=O)(=O)c1cccc(COC(=O)CN2C(=O)NC3(CCCC3)C2=O)c1 | 7.72
COc1ccc(Cl)cc1NC(=O)CN(C)Cc1cccs1 | 13.5
COc1ccc(-c2nnc3ccc(SCC(=O)Nc4nc5ccccc5s4)nn23)cc1OC | 0.219
CCN(CC(=O)NCc1ccc(Cl)cc1)C(=O)CCC(=O)c1ccc(C)cc1 | -8.96
COc1cc(C(=O)N2C(=O)CCC2=O)cc(OC)c1OC | 27.6
CCOC(=O)[C@H]1[C@H]2COc3ccc(Br)cc3[C@@H]2N2C(=O)c3cc(Br)ccc3NC(=O)[C@@]12C | 14.8

SMILES | hERG current change (%, negative = inhibition) at 1uM [%]
O=C(CN(Cc1ccccc1)C(=O)CCC(=O)Nc1nccs1)NCc1ccco1 | -1.09
CC1CCCN(S(=O)(=O)c2csc(C(N)=O)c2)C1 (centres unmarked) | 19.1
C=CCc1ccccc1OCCSc1nc2ccc([N+](=O)[O-])cc2s1 | 13.7
Cc1cc(=O)oc2cc(O[C@@H]3O[C@H](CO)[C@@H](O)[C@H](O)[C@H]3O)ccc12 | 12.5
CCCCN(C(=O)CSCC(=O)Nc1ccc(OC)cc1)c1c(N)n(CCC)c(=O)[nH]c1=O | 11
CCCNC(=O)N1CCCC(C(N)=O)C1 (centres unmarked) | 8.09
Cc1ccc(C(=O)OCC(=O)Nc2nc(-c3ccccc3)cs2)cc1NC(=O)c1ccco1 | 1.5
C=CCOc1ccc(/C=C/C(=O)OCC(=O)N2CCCc3ccccc32)cc1 | 6.24
Cc1ccc(NC(=O)CN2CCN(CCN=CC3=C(O)CC(C)(C)CC3=O)CC2)cc1 | 5.61
COc1cc(Br)c(C2CC(=O)Nc3cc(OC)c(OC)cc32)cc1OC (centres unmarked) | 12
Cc1cc(C)c2nc(-c3ccccn3)cc(C(=O)N3CCCC3)c2c1 | 11.9
COc1ccc(S(=O)(=O)NCC(c2cccnc2)N2CCN(C)CC2)cc1OC (centres unmarked) | 13.2
N/C(=N\N=C\c1ccc(Br)o1)c1nonc1N | 12.4
NC(=O)c1ccccc1N=Cc1cccnc1 | 5.98
Cc1ccc(-n2c(CNC(=O)c3cccs3)nnc2SCC(=O)NO)cc1 | 5.89
COc1ccc(CNC(=O)C2CCN(S(=O)(=O)c3cccc4nonc34)CC2)cc1 | 7.61
Cc1[nH][nH]c(=O)c1C(c1ccc(Br)cc1)c1c(C)[nH][nH]c1=O.Cl | 9.75
CC(=O)N1c2c(cc(Br)cc2S(=O)(=O)N2CCOCC2)CC1C (centres unmarked) | 12.8
Cc1ccc(-n2ncc(C#N)c2/N=C/N(C)C)cc1 | 16.2
O=C1C(N2CCOCC2)=C(n2nnc3ccccc32)C(=O)c2ccccc21 | 9.63
OCCCNc1nc(-c2ccc(Cl)cc2)nnc1-c1ccccc1 | 5.01
O=C1/C(=C/c2cccnc2)SC(=S)N1Nc1ccccc1 | 13.2
